According to the supplement of paper PMC11417369:
The other results are listed elsewhere or left out.

Test system: PfHDP1 homeodomain (GST-tagged)
Assay: gcPBM binding intensity (ln(normalized median fluorescence intensity)); higher = stronger DNA binding
Method in brief: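 Using an Agilent 4 × 180k array, primer-extended double-stranded 36-bp intergenic genomic probes and negative controls were exposed for 1 h to GST-fused P. falciparum DNA-binding domains expressed in E. coli. Binding was carried out in 1× PBS with 1% milk, 0.2 mg/ml BSA, 0.5% salmon testes DNA and 0.03% Triton X-100, and protein was detected with Alexa488 anti-GST antibody and a 488 nm scan. Binding intensity is the highest Masliner-normalised natural-log median intensity across replicate spots of either probe orientation.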

Compared with “CAAAGAGAAATAAACACACACAAAATAAAGAAAAAA [CACACA_site2245]”, “AAAAAAAAAAAAAAAACACACATATAGATTTATATA [CACACA_site7196]” is lower in “gcPBM binding intensity (ln)” value: 6.9 for the first, 6.64 for the second.

Going from “TTTTTTCTATTGAGCACACATATCACGATTAGTACT [CACACA_site313]” to “GCTCAATTTTTGGGTACACACAAATGTATAATAATA [CACACA_site2388]”, the “gcPBM binding intensity (ln)” value falls from 7.41 to 6.72.

First: ATATATATTATTTCTACACACATATATATAATATGT [CACACA_site3374]
Second: AATTAAATTACTTATACACACATAAAATGCCTGTAT [CACACA_site6597]
The “gcPBM binding intensity (ln)” value of the first is higher: 6.9 for the first, 6.47 for the second.

Compared with “TTATGATATATTTGTTGTACGCTTTTTTTATGAACT [XGTACX_site573]”, “CATTATGTTGTAAATGCACACATACAAATACATATA [CACACA_site8380]” is higher in “gcPBM binding intensity (ln)” value: 6.88 for the first, 9.89 for the second.

Going from “GTAAGTTGTGCATTCACACACATATAAATATAAATA [CACACA_site7536]” to “AACACATACATATATACACACACAAAATAATAAAAT [CACACA_site8724]”, the “gcPBM binding intensity (ln)” value falls from 9.03 to 6.98.

Going from “ATGACCCACTTTTCTGCACACATAAAAAATATATAA [CACACA_site8092]” to “TTAACAAAACTTTTAACACACAAAAAAAAAAAAAAA [CACACA_site6947]”, the “gcPBM binding intensity (ln)” value falls from 8.54 to 6.45.

Going from “CTATAATAATAAAGTGAACACACACCGATAATATAT [CACACA_site9377]” to “ATTTTCAAATTCTATGCATGTGTATATTATAGATAA [TGCATGCA_site1003]”, the “gcPBM binding intensity (ln)” value falls from 6.65 to 6.63.

Going from “AAAATCTATAATATAACACACATATATTCTATATGG [CACACA_site7821]” to “CATACATACAGACACACACACATATAAATACATACA [CACACA_site6533]”, the “gcPBM binding intensity (ln)” value rises from 6.29 to 6.98.

First: TTCCTGTTAATTACAACACACAATTCTTATTTTATG [CACACA_site6507]
Second: TATAAATAAATGTGTACACACATTAAAATCAAACGT [CACACA_site2340]
The “gcPBM binding intensity (ln)” value of the first is higher: 6.99 for the first, 6.71 for the second.

Going from “TTATTTGTATCCATTTCACACATTTTATATAGTATC [CACACA_site5989]” to TTTTTTGTTATGCGGGTGCATATAATAATGTGATGA, the “gcPBM binding intensity (ln)” value rises from 6.74 to 8.99.

Going from “TTTATCAAAAAAAAAAAAAAAAAAAAAAAAAATTGT [CACACA_negctrl_site176]” to TTATGTGCTTTAAAAGTGCATTTTTTTTTTTTTTTT, the “gcPBM binding intensity (ln)” value rises from 5.83 to 7.57.

First: TATATGTTTTATAAATGTACATATACTTAAATATTT [XGTACX_site4753]
Second: ACTATTAAGAATAAAGAAATATGTAATTGTATTTAA [CACACA_negctrl_site516]
The “gcPBM binding intensity (ln)” value of the first is higher: 6.43 for the first, 6.08 for the second.

Compared with “AATACATAATAACGTTGTACAAAAATTATAATACAT [XGTACX_site6508]”, “ATATATGTATGTTAGACACACATATTATAATATGTT [CACACA_site116]” is lower in “gcPBM binding intensity (ln)” value: 7.04 for the first, 6.5 for the second.

Going from “AAAACGGATTCTTTATAAATAAATAAATAAATATAA [XGTACX_negctrl_site157]” to “AATACATACACAAATACACACACAAATACATACACA [CACACA_site8134]”, the “gcPBM binding intensity (ln)” value rises from 6.15 to 7.26.

Compared with “TTTTTTTTTTTTTTTACACACAAATGTATACTATAT [CACACA_site1787]”, “TATTAAATATTCATATGTACATATAGTTTATAAATT [XGTACX_site7455]” is lower in “gcPBM binding intensity (ln)” value: 6.6 for the first, 6.54 for the second.

First: TTTTAAAAATTAAAAAAATTAAATGTAAAAAAATGA [CACACA_negctrl_site861]
Second: ATATATGTATATGTGTGTACATATATGTTTATTATT [XGTACX_site6043]
The “gcPBM binding intensity (ln)” value of the first is lower: 6.27 for the first, 6.49 for the second.

Compared with “GGACTTAAATAAAATGGTACAGAATTTATATATATT [XGTACX_site8214]”, “TAATGGAATACATATAGTACATAATATTACATACAT [XGTACX_site5737]” is higher in “gcPBM binding intensity (ln)” value: 6.24 for the first, 6.41 for the second.

Compared with “GTGTCAAATTTTATAACACACAAAAGATTATATAAG [CACACA_site4086]”, “CCAATATATACATATATATAGTTATATATATTTCCT [TGCATGCA_negctrl_site38]” is lower in “gcPBM binding intensity (ln)” value: 6.42 for the first, 6.31 for the second.

Going from “TTTTTTTTTTTTTATTGTACTAGTAGATATATATAC [XGTACX_site3463]” to “TCCTCGCGTAATACTTTTCAAATAAAAAAAATAAAA [TGCATGCA_negctrl_site403]”, the “gcPBM binding intensity (ln)” value rises from 6.16 to 6.24.

Compared with “ATTAAAAATTAATATAAACACACAAAAATTAATAAA [CACACA_site8019]”, “AAACATACTTGATGCAGTACACATTATAAGCACATA [XGTACX_site3359]” is lower in “gcPBM binding intensity (ln)” value: 6.71 for the first, 6.62 for the second.

Going from “TATATAACATAATATACACACATTATGTGCGTAATT [CACACA_site4073]” to GTATATCATTTTGGGGTGCTTAAAAATAATGAATAC, the “gcPBM binding intensity (ln)” value falls from 9.08 to 7.

First: TTTTTTTTTTTTTATTGTACAAAGGTATAAAATAAT [XGTACX_site2396]
Second: CATATGTATATGACTACACACAAGGGTGTACAGATA [CACACA_site4776]
The “gcPBM binding intensity (ln)” value of the first is higher: 6.63 for the first, 6.37 for the second.

First: TATTATTCTGTATTTGCATGTGATCATATATATGTA [TGCATGCA_site1053]
Second: AAACAAAAAAGTAAGAAAAGGGATGATTGGATCCAA [CACACA_negctrl_site1230]
The “gcPBM binding intensity (ln)” value of the first is higher: 7.17 for the first, 6.28 for the second.

Compared with “AGATATTATAATTAATGTACAAAAAGAAAAAATAGA [XGTACX_site8964]”, “CATACATACAGACACACACACATATATATATATATA [CACACA_site2920]” is higher in “gcPBM binding intensity (ln)” value: 6.97 for the first, 9.44 for the second.

Going from “AACATAAAAATGAACATACACACATATATATATATA [CACACA_site2497]” to “ATAAAAATACAGTTAACACACATGTGGATATATATG [CACACA_site3771]”, the “gcPBM binding intensity (ln)” value falls from 9.2 to 7.31.

Compared with “ATTTATTCATAGACAACAAGAAAAAAAAAAAAAATT [CACACA_negctrl_site1168]”, “AGTTTTCCATGTTAATGTACTTAACAATACCATAAT [XGTACX_site209]” is higher in “gcPBM binding intensity (ln)” value: 6.12 for the first, 6.97 for the second.

Going from “TATATCCATATTGTATGTACACATATAATACCAATG [XGTACX_site7230]” to “GTATTATCTTTTAATAGTACATATTTTTTTGAAACA [XGTACX_site4050]”, the “gcPBM binding intensity (ln)” value falls from 6.4 to 5.98.

Compared with “CATATAATATTTGAAACTATATATAAATATAAGGTA [TGCATGCA_negctrl_site19]”, “AATATATTTTTATATTGTACAAAAGAAAAAAAATAT [XGTACX_site1689]” is higher in “gcPBM binding intensity (ln)” value: 6.2 for the first, 6.89 for the second.

First: TTTTTAATTTATTAAGAAGTAAAGAATAACTCTTTT [TGCATGCA_negctrl_site101]
Second: AAACATTAAAATAACTCACACATTTTTCTAGTCTTC [CACACA_site4612]
The “gcPBM binding intensity (ln)” value of the first is lower: 5.57 for the first, 6.19 for the second.

Compared with “ATATAATGATAATATTGTACATGTTATATTTCAATA [XGTACX_site8645]”, “ATATATTTAATATTCACACATAATTATTTTTACTCT [CACACA_site5438]” is higher in “gcPBM binding intensity (ln)” value: 6.36 for the first, 6.68 for the second.

Going from “TTGTAATATCTTGTCACACATATATATATATATATA [CACACA_site4937]” to “TATAGATAAGAATATGCACACATTTTATTTTTTTTT [CACACA_site1982]”, the “gcPBM binding intensity (ln)” value rises from 9.39 to 9.62.

First: TGATTAAAAGAGGGAAAAAAAAAAAAAAAAAAAAAA [CACACA_negctrl_site896]
Second: TTCTTTTTTAAACACACACACACAAGAAAATATATA [CACACA_site5680]
The “gcPBM binding intensity (ln)” value of the first is lower: 6.29 for the first, 7.18 for the second.

Compared with TGACGAAAAAAAAGGGTGCTTAGTATAACTTTAAAG, “TATAAAGGTGAAATTTGTACATAGTCATTTTTTAAT [XGTACX_site4811]” is higher in “gcPBM binding intensity (ln)” value: 6.1 for the first, 6.54 for the second.

Going from “TCGACAAATGTATATACACACATTTGTAACATAAAT [CACACA_site560]” to “ATATATATATATATATGTACTTAATATTTCTTATTT [XGTACX_site6206]”, the “gcPBM binding intensity (ln)” value rises from 6.57 to 9.15.

Going from “TTATTCAGAAAAAAAAAAAAAAAAAAAAAAAAAAAA [CACACA_negctrl_site1662]” to “GAGAAGACATTACACAGTACCCAGGAAATCTACGGA [XGTACX_site1993]”, the “gcPBM binding intensity (ln)” value falls from 6.2 to 6.15.

First: ATATGTAAAGAAAAGTAAACACTAATTTTAAACAAT [CACACA_negctrl_site11]
Second: TATATATATGTGCAGTGTACTTTTTTTTTCTGTAAG [XGTACX_site3424]
The “gcPBM binding intensity (ln)” value of the first is lower: 6.41 for the first, 7.11 for the second.

Compared with “ATTTTTAATATTATTACACACACTAATAAAAAAAAA [CACACA_site8265]”, “TTTTTTTTAATTGTGATACGTATATTATTTTTTGAT [TGCATGCA_negctrl_site318]” is lower in “gcPBM binding intensity (ln)” value: 6.48 for the first, 6.43 for the second.

Going from “ATATAATTATATAAATGTACTCATTCGTTATTTTGC [XGTACX_site6132]” to “TATATTAAGTATAAGACACACATATAGTAATAGAAA [CACACA_site5176]”, the “gcPBM binding intensity (ln)” value rises from 6.16 to 6.34.

First: TTATAAAAAAAAATAACACACAGACATAAGAATAAA [CACACA_site9383]
Second: AAATATAATAATAATTTAAGAATCTAATATTTTATA [CACACA_negctrl_site831]
The “gcPBM binding intensity (ln)” value of the first is higher: 6.84 for the first, 5.69 for the second.

Compared with “TACTATATCGATACCAGTACAGATTTATAAATAATA [XGTACX_site7491]”, “ATATAACTTTTCTTAACACACAAAAAACAAAAATAA [CACACA_site2380]” is higher in “gcPBM binding intensity (ln)” value: 6.31 for the first, 6.91 for the second.

First: AAGTGTCAAAGTTACACACACAAACTTGTCATTTTT [CACACA_site837]
Second: GGTATACATATTAAATGTACATATTTTAACAATAAG [XGTACX_site4868]
The “gcPBM binding intensity (ln)” value of the first is higher: 6.59 for the first, 6.32 for the second.

Going from “ATTTTTTTTTTAAAATGTACATGAGAAATTGTATAT [XGTACX_site425]” to “TTTCTTATATAAGTGTACTAAAATATATATATGCAA [GTGCAC_negctrl_site546]”, the “gcPBM binding intensity (ln)” value rises from 6.44 to 6.64.

First: TAACATAATATAGACACACACATGTACATATGCCAA [CACACA_site1842]
Second: TATATTATTAATTAAGCACACATTATTTTTATAATA [CACACA_site3982]
The “gcPBM binding intensity (ln)” value of the first is higher: 6.55 for the first, 6.37 for the second.

Going from “TAAAAAAATAAATATACACACATATATAAATATGTA [CACACA_site6641]” to “TATGAATATCTATACACACACATATATATACTCACT [CACACA_site1597]”, the “gcPBM binding intensity (ln)” value rises from 6.18 to 6.82.
